# Measured values taken from PubChem BioAssay AID1508642 (National Center for Advancing Translational Sciences (NCATS), 2021).
# Out of some 43,000 compounds screened, about 200 (0.47%) were called active. Inconclusive results (about 12%) are left out. The call rests on the fitted dose curve; in most records, active means well fitted cell-killing curve with a large enough effect; inconclusive means small, poorly fitted or top-dose-only effect, or effect the other way; inactive means flat fitted curve, though single readings scatter. This is one part of the list.
# Experiment: Cell viability qHTS assay in S16 Pmp22-F2sN cells; further: nearly all actives have a fitted effect of over 65% in size
# Settings: S16 Pmp22-F2sN Schwann cells (luciferase reporters placed in the Pmp22 gene) viability, CellTiter-Glo, 24 h; series mostly up to 57.5 µM; activity change, negative = cytotoxicity: at the top concentration
# Outline: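 Luminescence from CellTiter-Glo, read by CCD camera after a 15 min room-temperature incubation, served as the viability signal. Reporter Schwann cells (S16 Pmp22-F2sN) had been treated with pin-transferred compounds for 24 h at 37C.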
# On the % scale 0 is the no-effect control and ±100 the full control effect.
row,Compound,"activity change, negative = cytotoxicity"
1,CCOc1ccc(NC(=O)c2ccc(NC(=O)N3CCSc4ncccc43)cc2)cc1,inactive: 2.7%
2,COC(=O)c1ccccc1NC(=O)c1ccc(COc2ccccc2Cl)o1,inactive: 5.98%
3,COc1ccc(C2CC(=O)c3cc(-c4nc(-c5cccc(Cl)c5)cs4)c(=O)[nH]c3C2)cc1OC (stereo unspecified),inactive: 21%
4,Cc1noc(/C=C/c2cccs2)c1S(=O)(=O)N1CCC(C(=O)Nc2ccc(F)c(Cl)c2)CC1,inactive: -0.175%
5,CC(=O)c1ccc(N2CCN(c3ncnc4c3c(-c3ccccc3)cn4-c3cccc(C)c3)CC2)cc1,inactive: 0.307%
6,COc1ccc(C(F)(F)F)cc1NC(=O)c1sc2nc(-c3cccs3)ccc2c1N,inactive: -23.1%
7,CCOC(=O)CC(NS(=O)(=O)c1ccc2[nH]c3c(c2c1)CCCC3)c1ccccc1Cl (stereo unspecified),inactive: -2.39%
8,CC(C)OCCCNC(=O)c1ccc2c(c1)N(Cc1c(F)cccc1Cl)C(=O)c1ccccc1S2,inactive: 12.7%
9,COc1ccc(-c2nn3c(=O)cc(CN4CCN(C(=O)c5ccc(C(C)(C)C)cc5)CC4)nc3s2)cc1,inactive: 5.07%
10,Cc1ccc(Oc2c(C(F)(F)F)oc3c(CN4CCCCC4C)c(O)ccc3c2=O)cc1 (stereo unspecified),inactive: -2.14%
11,CCOC(=O)c1c(N)n(-c2ccc(C)c(Cl)c2)c2nc3ccccc3nc12,inactive: 8.6%
12,COc1ccc(C(=O)NCC(c2cccnc2)N2CCc3ccccc32)cc1 (stereo unspecified),inactive: -16.5%
13,CCOc1ccccc1NC(=O)CSc1nc2c(oc3ccccc32)c(=O)n1-c1ccc(C)c(C)c1,inactive: -9.28%
14,CCOC(=O)C1=C(CS(=O)(=O)c2cccc(C(F)(F)F)c2)NC(=O)NC1c1cccc(OC)c1 (stereo unspecified),inactive: 4.84%
15,O=C(CCC1N=C2c3ccccc3N=C(SCc3ccc(F)cc3)N2C1=O)NCc1cccs1 (stereo unspecified),inactive: -1.85%
16,CC1=C(c2ccc(C)c(C)c2)S(=O)(=O)N(Cc2ccc(C(=O)NCc3cccc(C)c3)cc2)C1=O,inactive: 3.08%
17,Cc1cccc(NC(=O)c2oc3ccccc3c2NC(=O)Cc2coc3c(C)c(C)ccc23)c1,inactive: 3.59%
18,CCOC(=O)Cc1ccc(NC(=O)N2CCOc3ccc(C)cc32)cc1,inactive: -16.6%
19,CC(C)c1ccc(NC(=O)C2CCCN(S(=O)(=O)c3cccc4cccnc34)C2)cc1 (stereo unspecified),inactive: -25.2%
20,CCc1nnc2c3ccccc3nc(Nc3ccc(C(C)=O)cc3)n12,inactive: -4.32%
21,Cc1ccc(OC(C)C(=O)Nc2nonc2-c2ccc(Br)cc2)cc1C (stereo unspecified),inactive: 2.85%

row,Compound,"activity change, negative = cytotoxicity"
1,Cc1ccc2nc(N(Cc3cccnc3)C(=O)COc3ccccc3)sc2c1,inactive: 2.81%
2,CCOC(=O)Cn1c(=O)oc2cc(S(=O)(=O)N3CCN(c4cccc(C)c4C)CC3)ccc21,inactive: -0.0904%
3,CCOC(=O)c1cc(S(=O)(=O)N2CCN(c3ccccc3)CC2)[nH]n1,inactive: 0.329%
4,Cc1ccc(Cc2nc3ccccc3nc2SCC(=O)Nc2ccc3c(c2)OCO3)cc1,inactive: -0.168%
5,Cc1ccc(S(=O)(=O)NCCS(=O)(=O)N2CCN(c3ccccc3)CC2)cc1,inactive: -1.59%
6,COc1ccc(CNC(=O)C2CCN(Cc3nc(-c4ccc(Cl)cc4)oc3C)CC2)cc1,inactive: -0.0842%
7,Cc1nc(N2CCOCC2)c2c(C(=O)Nc3cccc(C(F)(F)F)c3)c(C)oc2n1,inactive: 0.64%
8,CSc1ccc(CCNC(=O)CCc2c(C)nc3c(c(C)nn3-c3ccccc3)c2C)cc1,inactive: -0.904%
9,O=C(NC1CC(=O)N(c2cccc(F)c2)C1)c1ccc(Br)o1 (stereo unspecified),inactive: 0.921%
10,Cc1ccc(CNC(=O)C(CC(C)C)NS(=O)(=O)c2ccc3c(c2)oc(=O)n3C)cc1 (stereo unspecified),inactive: 4.45%
11,Cc1cccc(N2CCN(CCNC(=O)C3COc4ccccc4C3)CC2)c1C (stereo unspecified),inactive: -27%
12,O=C(NCc1ccc(Cl)cc1)c1cnc(N2CCCCC2)c2ccccc12,inactive: 20.4%
13,O=C(O)c1cc(-n2c(/C=C\c3ccc(F)cc3)nc3ccccc3c2=O)ccc1Cl,inactive: -27.6%
14,Cc1c(S(=O)(=O)c2cccc(Cl)c2)nnn1-c1cccc(C(F)(F)F)c1,inactive: 19%
15,CCCC(=O)N1CCN(c2nc3c(OC)ccc(C)c3s2)CC1,inactive: 6.39%
16,CCOc1ccc(-n2c(SCC(=O)N3CCOCC3)nc3c([nH]c4ccccc43)c2=O)cc1,inactive: 1.24%
17,CC(C)(C)OC(=O)N1CCC(c2c(C(=O)N3CCN(C(=O)c4ccco4)CC3)cnn2-c2cccc(F)c2)CC1,inactive: -2.75%
18,COc1cc(C(=O)Nc2ccc3nc(SCc4ccc(C)cc4)sc3c2)cc(OC)c1OC,inactive: 19.2%
19,Cc1ccc(-n2nc(C(=O)N3CCC(C)CC3)c(=O)n(C)c2=O)cc1,inactive: -1.03%
20,Cc1ccc(Cl)cc1-n1ncc2c(NC3CCCCCC3)ncnc21,inactive: -2.72%
21,O=C(Nc1cccc(F)c1)c1ccc2snnc2c1,inactive: 3.62%

row,Compound,"activity change, negative = cytotoxicity"
1,Cc1ccc(C)c(Nc2nnc(-n3nc(C)cc3C)c3ccccc23)c1,inactive: 0.289%
2,CCN(c1ccccc1)S(=O)(=O)c1nnc(NC(=O)c2cccs2)s1,inactive: -18.1%
3,CCOC(=O)c1cc(-c2ccccc2)n(CCCC(=O)Nc2ccc(C)cc2C)c1C,inactive: -5.13%
4,COc1ccc(-c2cc(C(=O)Oc3ccc(C)c(C)c3)c3ccccc3n2)cc1,inactive: 0.273%
5,Cc1cccn2c(=O)c3cc(C(=O)NCc4ccccc4Cl)sc3nc12,inactive: 6.21%
6,CCC(C)NC(=O)c1c(-c2ccccc2)c(-c2ccccc2)nn(C)c1=O (stereo unspecified),inactive: -4.31%
7,CC(C)(C)C(=O)N1CCN(c2nc3c(F)cccc3s2)CC1,inactive: 1.54%
8,CCOc1ccc(-n2c(SCC(=O)N3CCCCC3)nc3c([nH]c4ccccc43)c2=O)cc1,inactive: 14.9%
9,Cc1c(C(=O)N2CCC(C(=O)Nc3ccc(F)cc3)CC2)sc2nc[nH]c(=O)c12,inactive: 16.8%
10,Cc1noc2ncnc(NCc3cccc(Cl)c3)c12,inactive: -8.07%
11,Cc1cccc(-n2c3nc(=O)n(C)c(=O)c-3cc3ccc(Cl)cc32)c1C,inactive: -3.63%
12,Oc1cccc(Nc2ncnc3sc4c(c23)CCCC4)c1,inactive: -15.2%
13,CS(=O)(=O)N1CCc2cc(C(=O)NCc3ccccc3)ccc21,inactive: 1.26%
14,Cc1nc2nc(NC(=O)c3ccc(Cl)cc3)[nH]n2c(=O)c1Cc1ccccc1,inactive: -0.589%
15,O=C(CSc1nc(=O)n(Cc2ccco2)c2c1CCC2)NCc1ccc(F)cc1,inactive: 10.8%
16,CC1=C(C(=O)Nc2ccccc2C)C(c2ccccn2)n2nc(SCc3ccccc3F)nc2N1 (stereo unspecified),inactive: -21.2%
17,COc1ccc2nc(NC(=O)c3ccc(S(=O)(=O)N4CCCC(C)C4)cc3)sc2c1 (stereo unspecified),inactive: 4.75%
18,CC(NC(=O)Cn1c(-c2cccs2)cc2cc(F)ccc21)c1ccccc1 (stereo unspecified),inactive: 6.35%
19,O=C(NC1CC(=O)N(c2ccc(Cl)cc2)C1)c1cccs1 (stereo unspecified),inactive: 8.49%
